{
  "source": "PubChem BioAssay AID504832",
  "about": "(National Center for Advancing Translational Sciences (NCATS), 2011)",
  "note": "The campaign covered roughly 310,000 compounds. About 18,000 (5.8%) were called active. The shares of active, inactive and inconclusive entries below differ from those in the screen. Calls come from the whole dose curve; as a rule, active = well fitted inhibition curve with a large enough effect; inconclusive = small, poorly fitted or top-dose-only effect, or another doubt; inactive = no such curve, though single readings can be large or run the other way. Potencies of inconclusive entries are left out as doubtful fits. % is set by controls: 0 for no effect and ±100 for the full control effect; potency is the fitted concentration of half-maximal effect; tags give direction and shape of the fitted curve.",
  "data": [
    {"test": "Primary qHTS for delayed death inhibitors of the malarial parasite plastid, 48 hour incubation", "conditions": "P. falciparum luciferase growth in erythrocytes; series mostly up to 28.7 µM; activity change, negative = inhibition: at the top concentration", "outline": "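Read-out is firefly luciferase luminescence from an integrated reporter in P. falciparum, so falling signal marks reduced parasite growth. Infected erythrocytes were at 2% hematocrit and 0.1% parasitemia (final) in Albumax-supplemented RPMI 1640.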", "values": [
      {"smiles": "CSc1ncc(C(=O)Nc2ccc(C)cc2C)c(C)n1", "activity change, negative = inhibition": "inactive: -3.49%"},
      {"smiles": "Cc1cc(C)c2c(N)c3ccccc3nc2n1", "Potency": "active: 14.7 µM"},
      {"smiles": "COc1ccc(CCNC(=S)NC2CCN(Cc3ccccc3)CC2)cc1OC", "Potency": "inconclusive [inhibitor, single point]"},
      {"smiles": "OCC1(Cc2cccc(C(F)(F)F)c2)CCN(Cc2cc(F)cc(F)c2)CC1", "Potency": "inconclusive [inhibitor, single point]"},
      {"smiles": "Cc1nc2ccccc2n1C1CCN(C(=O)Nc2ccccc2)CC1", "Potency": "inconclusive [inhibitor, partial curve]"},
      {"smiles": "C/C(=N\\Nc1nc(N2CCCCC2)nc(N2CCOCC2)n1)c1cccs1", "activity change, negative = inhibition": "inactive: -10.5%"},
      {"smiles": "COc1ccc(OCc2cc(C(=O)NCCN3CCCc4ccccc43)no2)c(Cl)c1", "Potency": "inconclusive [inhibitor, partial curve]"},
      {"smiles": "O=C(/C=C/C=C/c1ccccc1)CC1(O)C(=O)N(CCc2ccccc2)c2ccccc21", "note": "(stereo unspecified)", "Potency": "inconclusive [inhibitor, single point]"},
      {"smiles": "O=C(NNc1nc(Nc2ccccc2)nc(N2CCOCC2)n1)Nc1ccc(Cl)cc1", "Potency": "active: 10.4 µM"},
      {"smiles": "Cc1ccc2nc3c(cc(C(=O)NCC4CCCO4)c(=N)n3CCCOC(C)C)c(=O)n2c1", "note": "(stereo unspecified)", "Potency": "inconclusive [inhibitor, single point]"},
      {"smiles": "O=C(c1ccc2c(c1)OCO2)N1CCN(S(=O)(=O)c2ccc(Cl)cc2)CC1", "Potency": "inconclusive [inhibitor, partial curve, poor fit]"},
      {"smiles": "O=C(c1cccc(Cl)c1)N1CCC(N2CCC(C(=O)N3CCCC3)CC2)CC1", "Potency": "inconclusive [inhibitor, partial curve]"},
      {"smiles": "O=c1c2cn[nH]c2nc(SCc2c(F)cccc2F)n1-c1ccc(Cl)cc1", "activity change, negative = inhibition": "inactive: -19.3%"},
      {"smiles": "O=C(CSc1ccc(C(F)(F)F)cc1[N+](=O)[O-])Nc1ccc2ccccc2c1", "activity change, negative = inhibition": "inactive: 27.8%"},
      {"smiles": "CSCCC(NS(=O)(=O)c1ccccc1F)C(=O)N1CCCCCCC1", "note": "(stereo unspecified)", "activity change, negative = inhibition": "inactive: -1.53%"},
      {"smiles": "CCOc1ccccc1OCC(=O)NCCc1ccc(S(N)(=O)=O)cc1", "activity change, negative = inhibition": "inactive: 0.651%"},
      {"smiles": "COCCCNC(=S)N1CCCN(c2nc3cc(C)ccc3cc2C#N)CC1", "Potency": "inconclusive [inhibitor, single point]"},
      {"smiles": "C(=N\\Nc1ccc(-n2ccnc2)nn1)/c1ccccc1", "activity change, negative = inhibition": "inactive: 15.1%"},
      {"smiles": "O=C(Cn1cnc2ccccc2c1=O)NCCC(=O)Nc1ccc(F)cc1", "activity change, negative = inhibition": "inactive: 20.3%"},
      {"smiles": "CCc1cccc2c(C#N)cn(CCOc3ccccc3OC)c12", "Potency": "inconclusive [inhibitor, full curve, poor fit]"},
      {"smiles": "COc1ccc(NC(=O)COC(=O)c2n[nH]c3ccccc23)c(OC)c1", "Potency": "inconclusive [inhibitor, single point]"}
    ]}
  ]
}
